Assay results taken from PubChem BioAssay AID686971 (National Center for Advancing Translational Sciences (NCATS), 2013).
In all, about 360,000 compounds went through this assay and about 7,500 (2.1%) were called active. The inconclusive results got no clear call from the source; some entries with a clear call stand among them for comparison. Calls come from the whole dose curve; as a rule, active = well fitted cell-killing curve with a large enough effect; inconclusive = small, poorly fitted or top-dose-only effect, or effect the other way, or another doubt; inactive = no such curve, though single readings can be large or run the other way. Potencies of inconclusive entries are left out as doubtful fits.

Assay: qHTS for induction of synthetic lethality in tumor cells producing 2HG: qHTS for the HT-1080-IDH1KD cell line;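 for activity, negative = toxicity: 0% = DMSO wells and -100% = cell-free medium wells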
Settings: HT-1080 IDH1 knockdown viability, ATP luminescence, 48 h; activity, negative = toxicity: at 46.1 µM (top of the series) unless noted
Summary of the method: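 % activity derives from luminescence (CellTiter-Glo), normalised to DMSO and no-cell wells. HT-1080-IDH1KD cells, 750/well, had 48 h compound exposure at 37 °C.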
Potency is the fitted concentration of half-maximal effect; tags give direction and shape of the fitted curve.

SMILES | Potency | activity, negative = toxicity
O=C(CN1CCN(S(=O)(=O)c2ccc(Br)cc2)CC1)N/N=C/c1ccc(Cl)c([N+](=O)[O-])c1 | inconclusive [cytotoxic, single point] | 
O=C1c2sc3nc4c(c(=O)n3c2C(=O)N1c1ccccc1)CCC4 |  | inactive: 2.49%
CCC(=O)NC(c1ccco1)c1cc(Cl)c2cccnc2c1O (configuration not stated) | active: 3.66 µM | 
CC1(C)CC(NC2C3CC4CC(C3)CC2C4)CC(C)(C)N1 (configuration not stated) | inconclusive [cytotoxic, partial curve] | 
CCCCCCCCCC(=O)N[C@H](CN1CCOCC1)[C@H](O)c1ccccc1 | inconclusive [cytotoxic, single point] | 
CC(=O)Nc1ccc(-c2ccnc3c2CC(C(=O)NCC2CCOCC2)O3)cc1 (configuration not stated) | inconclusive [cytotoxic, full curve] | 
c1ccc(-c2ccccc2OCCOCCN2CCc3ccccc3C2)cc1 | inconclusive [cytotoxic, single point] | 
O=C(NCc1ccccn1)[C@@H]1CCCN1C(=O)[C@@H]1CCCN1C(=O)c1cccs1 |  | inactive: -1.23%
CC(C)CC(=O)/C(=C\c1ccc(Cl)cc1Cl)n1cncn1 | active: 2.91 µM | 
O=C(OCC(=O)N1CCCC1)c1cc(Br)ccc1Cl | inconclusive [rising, partial curve] | 
CC1CCc2c(sc(NC(=O)CSc3nc4c(c(C(F)(F)F)n3)CCc3ccccc3-4)c2C(N)=O)C1 (configuration not stated) |  | inactive: 10.4%
CC(C)CN(C(=O)CN1C(=O)C2CCCCC2C1=O)c1c(N)n(Cc2ccccc2)c(=O)[nH]c1=O (configuration not stated) |  | inactive: 6.31%
CCOC(=O)c1c(CN2CCN(Cc3ccccc3)CC2)n(C)c2cc(Br)c(OC)cc12 |  | inactive: 17.7%
C=C1CC2C3CC[C@@]4(OCOC45COCO5)[C@@]3(C)C(O)CC2[C@@]2(C)CCC(=O)C=C12 (some centres not stated) | inconclusive [cytotoxic, single point] | 
Cc1cccc(C)c1NC(=O)c1cn(-c2ccccc2)nc1-c1ccccc1 |  | inactive: 16.5%
CN(C)C(=O)c1cccc(-c2cnc3c(NC=O)cc(-c4cccc(C(F)(F)F)c4)cn23)c1 | active: 18.4 µM | 
Oc1[nH]c(N=C2N=c3ccccc3=N2)c2ccccc12 | inconclusive [cytotoxic, single point] | 
C=CCC[C@H](Cc1ccc(F)cc1)C(=O)OC[C@@H](NC(=O)[C@@H](CC=C)CC(=O)N[C@H](CO)Cc1ccccc1)C(C)(C)C | inconclusive [cytotoxic, single point] | 
Cc1cc2c(NC(=O)Nc3ccc(C(C)(C)C)cc3)cccc2nn1 |  | inactive: -14.4%
CC(C)c1cc(C(C)C)c(S(=O)(=O)NC(c2ccccn2)C23CC2C3)c(C(C)C)c1 (configuration not stated) | inconclusive [cytotoxic, single point] | 
COc1ccccc1C(=O)N1CCN(c2nc3cc(C)c(C)cc3cc2C#N)CC1 | inconclusive [cytotoxic, single point] | 
COc1ccc(NC(=O)N(C)C[C@H]2OCCCC[C@H](C)Oc3ccc(NC(=O)Nc4ccc5c(c4)OCO5)cc3C(=O)N([C@@H](C)CO)C[C@@H]2C)cc1 |  | inactive: -8.01%
COc1ccc2oc(=O)c(C(=O)N3CCN(c4ccccc4C)CC3)cc2c1 | inconclusive [rising, single point] | 
O=C(Nc1ccc(S(=O)(=O)N2CCOCC2)cc1)c1cc(-c2cc(Cl)ccc2O)n[nH]1 | active: 16.4 µM | 

SMILES | Potency | activity, negative = toxicity
CCOc1ccc(S(=O)(=O)N(CC(=O)N/N=C/c2cccs2)c2ccc(C)cc2)cc1 | inconclusive [cytotoxic, single point] | 
Cc1cccc(Nc2nc(N)c([N+](=O)[O-])c(N3CC(C)CC(C)C3)n2)c1 (configuration not stated) | active: 20.6 µM | 
CC12CCC(C(=O)N(CSC(=S)N/N=C\c3ccccc3O)C1=O)C2(C)C (configuration not stated) | inconclusive [cytotoxic, partial curve] | 
Cc1ccc(OCCNC(=O)c2ccccc2SCC(=O)N2CCCC2)cc1 |  | inactive: 1.08%
COc1cc(Cl)c(C)cc1NC(=O)CSc1ccccc1 |  | inactive: -3.18%
O=C(N/N=C/c1c[nH]c2ccc(Br)cc12)c1ccn(Cc2ccc(Cl)cc2)n1 | inconclusive [cytotoxic, single point] | 
COCCn1c(SCC(=O)Nc2ccc(NC(=O)c3ccco3)c(OC)c2)nc2ccccc2c1=O | inconclusive [cytotoxic, single point] | 
C[C@H](NC(=O)N1CCn2c1nc1ccccc12)C(=O)NC1CC1 |  | inactive: 14.4%
CCc1nc2c(OCc3c(C)noc3C)cccn2c1N(C=O)Cc1ccccc1 |  | inactive: 8.17%
Cc1ccc(CN2CCSc3ccc(C(=O)NCCCN4CCOCC4)cc32)cc1 | inconclusive [cytotoxic, single point] | 
COC(=O)c1ccc(CNC(=O)COC(=O)/C=C/c2ccc(O)c(OC)c2)cc1 |  | inactive: 8.1%
CCOc1ccc(C(CCc2ccccc2)NC(=O)c2ccccc2OC)cc1OCC (configuration not stated) | inconclusive [cytotoxic, partial curve] | 
CCc1cccc(NS(=O)(=O)c2c(C)n[nH]c2C)c1 |  | inactive: 6.95%
CCCc1cc2c(=O)c(-c3ccc4c(c3)OCCO4)coc2cc1OC(=O)c1ccco1 | inconclusive [cytotoxic, single point] | 
O=C(COC(=O)CCCN=C1NS(=O)(=O)c2ccccc21)NC(=O)NC1CCCC1 | inconclusive [rising, single point] | 
COC(C(=O)Nc1ccnn1C1CCN(Cc2ccccn2)CC1)c1ccccc1 (configuration not stated) |  | inactive: 5.84%
Cc1ccc(C(=O)NC(=S)Nc2ccc(NC(=O)c3cccc(Cl)c3)cc2)cc1 | active: 25.9 µM | 
CSc1ccccc1C(=O)Nc1ccc(C)c(C)c1 | inconclusive [cytotoxic, single point] | 
COc1cccc(C(N)c2nc(-c3cc(F)cc(F)c3)cs2)c1 (configuration not stated) | inconclusive [cytotoxic, single point] | 
CCOC(=O)C1=CCC2C(=O)N(C)C(=O)C12 (configuration not stated) |  | inactive: 9.93%
COc1ccc(C(=O)c2[nH]c(N)c(C(=O)NCCc3c[nH]c4ccccc34)c2-c2ccc(OC)c(OC)c2)cc1 | inconclusive [cytotoxic, partial curve] | 
COc1ccc(NS(=O)(=O)c2csc(C(=O)Nc3ccccc3)c2)cc1 |  | inconclusive: -31.7% [cytotoxic]
O=S(=O)(NC1CCN(Cc2ccccc2)CC1)c1cccc2cccnc12 | inconclusive [cytotoxic, single point] | 
CCOC(=O)C1=C(c2ccccc2)N=c2s/c(=C\c3cccc(O)c3)c(=O)n2C1c1cccs1 (configuration not stated) | inconclusive [cytotoxic, single point] | 

SMILES | Potency | activity, negative = toxicity
Cc1nn(-c2ccccc2)c(C)c1/C=N/Nc1nc2ccccc2[nH]1 | active: 18.4 µM | 
Nc1cc(Cl)ccc1C(=O)OCC(=O)NC1CCCCCCC1 |  | inactive: -5.39%
COc1ccc(-c2c(C)cc3oc(=O)cc(-c4ccccc4)c3c2C)cc1C=O | inconclusive [cytotoxic, partial curve] | 
COC(=O)c1c(NC(=O)C(Cl)Cl)sc2c1C(C(=O)OC)CC2 (configuration not stated) |  | inactive: -10.5%
CCCN(CCC)S(=O)(=O)c1ccc(Cl)c([N+](=O)[O-])c1 | active: 23.1 µM | 
O=S(=O)(Nc1nc2ccccc2nc1NCc1ccco1)c1ccc(Cl)cc1 | inconclusive [cytotoxic, single point] | 
CC(C)(C)c1cc(OS(C)(=O)=O)ccc1O |  | inactive: -21.4%
Cc1cccc(-c2nnc3n2N=C(c2ccccc2Br)CS3)c1 |  | inactive: -28.5%
Cc1onc(-c2ccccc2)c1-c1nc2ccccc2c(=O)o1 | inconclusive [cytotoxic, partial curve, poor fit] | 
C(=Cc1c[nH]c2ccccc12)c1ccc2ccccc2n1 | active: 23.1 µM | 
Oc1c(Br)cc(Br)cc1CNc1ccc(F)cc1 | inconclusive [cytotoxic, single point] | 
COc1cc(/C=C2\SC(=S)N(NC(=O)c3ccc(O)cc3)C2=O)ccc1O |  | inactive: -5.44%
COC(=O)C1=C(C)NC(C)=C(C(=O)OC)C1/C=C/c1ccccc1 | inconclusive [cytotoxic, single point] | 
Fc1ccc(CN2CCC(Cc3ccccc3)CC2)cc1F |  | inactive: -7.25%
COc1ccc(-n2nc(C(=O)NCC(=O)NCCCN3CC(C)CC(C)C3)c3ccccc3c2=O)cc1Cl (configuration not stated) | inconclusive [cytotoxic, single point] | 
COc1cccc(CC(=O)Nc2nc(C)cs2)c1 |  | inactive: -2.4%
CCOc1ccc(/C=N/Nc2nc(N3CCCC3)nc(N3CCCC3)n2)cc1OC | inconclusive [cytotoxic, single point] | 
Oc1ccc(F)c(CN2CCN(c3ncc(Cc4ccccc4)cn3)CC2)c1 | inconclusive [cytotoxic, single point] | 
OC[C@@H]1CN(Cc2ccc(-c3ccccc3)cc2)C[C@H](n2cnc3c(NCc4ccco4)ncnc32)O1 | active: 18.4 µM | 
CCOc1ccc(NC(=O)c2ccc3nccnc3c2)cc1 |  | inactive: -7.47%
Cc1ccc(Nc2nc(Cl)nc3ncn(C)c23)c(C)c1 |  | inactive: -8.7%
CCN(CC)C(=O)CSc1nnc2nnc3cc(Cl)ccc3n12 | inconclusive [cytotoxic, single point] | 
COn1c(SCc2ccc(C)cc2C)nc2ccccc2c1=O | inconclusive [cytotoxic, single point] | 
CC(=O)Nc1ccc(OCC(O)Cn2c3ccccc3c3ccccc32)cc1 (configuration not stated) | inconclusive [cytotoxic, single point] | 
